# Measurements taken from PubChem BioAssay AID504832 (National Center for Advancing Translational Sciences (NCATS), 2011).
# In all, about 310,000 compounds went through this assay and about 18,000 (5.8%) were called active. Inconclusive results, whose numbers are uncertain, are shown with a selection of clear calls. Calls come from the whole dose curve; as a rule, active = well fitted inhibition curve with a large enough effect; inconclusive = small, poorly fitted or top-dose-only effect, or another doubt; inactive = no such curve, though single readings can be large or run the other way. Potencies of inconclusive entries are left out as doubtful fits.
# Assay: Primary qHTS for delayed death inhibitors of the malarial parasite plastid, 48 hour incubation
# Conditions: P. falciparum luciferase growth in erythrocytes; series mostly up to 28.7 µM
# Method in brief: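 Compounds are pin-transferred into medium, infected erythrocytes (2% hematocrit, 0.1% parasitemia final) are added, and plates sit one parasite generation at 37 C in 5% CO2. Detection reagent is then added and luminescence measured.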
# Potency is the fitted concentration of half-maximal effect; tags give direction and shape of the fitted curve.
row,Structure (SMILES),Potency
1,N#Cc1c(NC(=O)CCn2cnc3ccccc3c2=O)oc(-c2ccccc2)c1-c1ccccc1,"inconclusive [inhibitor, partial curve, poor fit]"
2,CCN(CC)c1ccc(NC(=O)CN2CCN(S(=O)(=O)c3cc(Cl)ccc3OC)CC2)cc1,active: 10.4 µM
3,Cc1ccc(C)c(S(=O)(=O)N2CCN(C(=O)c3ccnn3C)CC2)c1,"inconclusive [inhibitor, full curve, poor fit]"
4,CCOC(=O)C(=O)NCc1ccc(/C=C2/N=C(C)C(C(=O)OCC)=C2O)o1,inactive
5,O=C(COC(=O)c1cc(S(=O)(=O)N2CCCCC2)ccc1N1CCOCC1)c1ccc(Cl)cc1,active: 11.7 µM
6,Cc1ccc(S(=O)(=O)Nc2cc(C(=O)O)ccc2N2CCCCC2)cc1,"inconclusive [inhibitor, single point]"
7,CCN(CC)S(=O)(=O)c1ccc(NS(=O)(=O)c2cccs2)cc1,inactive
8,Cc1cc(C)n(-c2nc3ccccc3c(=O)n2OCC(=O)N(C)C)n1,"inconclusive [inhibitor, full curve]"
9,C/C=C/c1ccc(OCC(=O)N2CCc3cc(OC)c(OC)cc3C2)c(OC)c1,"inconclusive [inhibitor, partial curve]"
10,Cc1cc(C(=O)C(=O)N(C)C)c(C)n1-c1ccc(Cl)c(Cl)c1,"inconclusive [inhibitor, partial curve, poor fit]"
11,Cc1ccc(NC(=O)CNc2cc(S(=O)(=O)N3CCOCC3)ccc2NCC2CCCO2)cc1F (stereo unspecified),"inconclusive [inhibitor, partial curve, poor fit]"
12,CCCOc1c(Br)cc(C(=O)NCC)cc1OC,"inconclusive [inhibitor, single point]"
13,COC(=O)c1ccc(NC(=O)C2CCN(C(=O)Nc3ccccc3)CC2)cc1,"inconclusive [inhibitor, partial curve]"
14,Cc1ccccc1Cn1ccc(NC(=O)c2cnn3c(C(F)(F)F)cc(-c4ccco4)nc23)n1,"inconclusive [inhibitor, single point]"
15,Cc1ccc(CNC(=O)NC23CC4CC(CC(C4)C2)C3)cc1,"inconclusive [inhibitor, single point]"
16,Cc1ccccc1C(=O)c1cccn1CC(=O)NCCCN1CCc2ccccc2C1,"inconclusive [inhibitor, single point]"
17,CN(CC(=O)Nc1ccccc1N1CCOCC1)S(=O)(=O)c1ccc(F)cc1,"inconclusive [inhibitor, partial curve, poor fit]"
18,Fc1ccc2c(c1)C(c1ccncc1)=NNC(c1ccc(Br)cc1)=N2,"inconclusive [inhibitor, single point]"
19,CCCCCCn1c(N)c(C#N)c2ccc([N+](=O)[O-])cc2c1=O,"inconclusive [inhibitor, full curve, poor fit]"
20,CCCN(CC(=O)Nc1ccc(Cl)cc1Cl)C(=O)/C=C/c1ccco1,inactive
21,Cn1c(CSCc2ccc(F)cc2)nnc1SCC(=O)Nc1nccs1,"inconclusive [inhibitor, single point]"
22,CC1(C)CC(=O)C2=C(C1)Nc1ccccc1S2,"inconclusive [inhibitor, single point]"

row,Structure (SMILES),Potency
1,CC(c1cccs1)N(C)Cc1nc(CCc2ccccc2)no1 (stereo unspecified),inactive
2,CC(C)CC(=O)c1c[nH]c(C(=O)NCCCN2CCOCC2)c1,inactive
3,CCn1cc(/C=C(\NC(=O)c2ccccc2Cl)C(=O)N2CCN(C)CC2)c2ccccc21,"inconclusive [inhibitor, single point]"
4,Cc1ccccc1N=Nc1ccc(N=Nc2c(O)ccc3ccccc23)c(C)c1,inactive
5,NC(=O)C1(c2ccccc2)CCOCC1,"inconclusive [inhibitor, single point]"
6,Cc1ccc(C)c(Oc2coc3cc(OCC(=O)Nc4ccccc4C(C)C)ccc3c2=O)c1,active: 13.1 µM
7,COC(=O)CSc1nccc(-c2cccs2)n1,"inconclusive [inhibitor, single point]"
8,Cc1ccc(C2C(C#N)=C3N=C(N)c4ccccc4N3C3=C2C(=O)CCC3)cc1 (stereo unspecified),"inconclusive [inhibitor, single point]"
9,O=C(CSc1nc2ccccc2c(=O)n1-c1ccc(F)cc1)NC1CC1,"inconclusive [inhibitor, single point]"
10,CC1CCCC(C)N1S(=O)(=O)c1ccc(NC(=O)CCn2cnc3ccccc3c2=O)cc1 (stereo unspecified),active: 13.1 µM
11,CCCN(CCC)CCCNC(=O)c1ccc2c(c1)N(CC)C(=O)c1ccccc1S2=O (stereo unspecified),"inconclusive [inhibitor, full curve, poor fit]"
12,COC(=O)CCCC1=CC2=C(c3ccccc3)C(=O)C(C)(OC(=O)C3CCCC3)C(=O)C2=CN1Cc1ccc2c(c1)OCO2 (stereo unspecified),"inconclusive [inhibitor, single point]"
13,COc1ccccc1N(Cc1ccccc1)S(=O)(=O)c1cccc(C(=O)Nc2cc(C)ccn2)c1,"inconclusive [inhibitor, partial curve, poor fit]"
14,O=C(Nc1nc2nccc(-c3ccccc3)n2n1)c1ccccc1,inactive
15,Cc1cc(NC(=O)CCCOc2ccc(Cl)cc2Cl)no1,"inconclusive [inhibitor, partial curve]"
16,O=C(Nc1nnc(-c2ccc3c(c2)CCCC3)o1)c1ccccc1,"inconclusive [inhibitor, single point]"
17,Oc1ccccc1-[n+]1c(-c2ccccc2)cc(-c2ccccc2)c(O)c1-c1ccccc1,"inconclusive [inhibitor, single point]"
18,Cc1nc2scc(-c3cccs3)c2c(=O)n1-n1cccc1,"inconclusive [inhibitor, single point]"
19,COc1ccc(SCCN2CCN(C)CCC2=O)cc1,inactive
20,CCOC(=O)C1=C(CSc2nc3ccccc3s2)NC(=O)NC1c1cc(C)ccc1C (stereo unspecified),"inconclusive [inhibitor, partial curve]"
21,CCOCc1nnc(NC(=O)CSc2ccccc2)s1,"inconclusive [inhibitor, partial curve, poor fit]"
22,Cc1nc(-c2ccc(NC(=O)Cc3ccccc3)cc2)cs1,inactive

row,Structure (SMILES),Potency
1,O=C(C1CCCN(S(=O)(=O)c2ccc(Cl)cc2)C1)N(Cc1cccs1)C1CC1 (stereo unspecified),active: 13.1 µM
2,COc1ccc(N=C2C(=Nc3ccc(OC)cc3)N(c3ccc(OC)cc3)C(=S)N2c2ccccc2)cc1,inactive
3,CCc1cc(-c2[nH]ncc2-c2ccc3c(c2)OCO3)c(O)cc1O,"inconclusive [inhibitor, partial curve]"
4,O=C(Nc1ccnn1C1CCN(C(=O)CCc2ccc(F)cc2)CC1)C1CCOC1 (stereo unspecified),"inconclusive [inhibitor, partial curve, poor fit]"
5,Cc1ccc(C(=O)NCCSCc2ccc(Cl)cc2Cl)cc1[N+](=O)[O-],"inconclusive [inhibitor, single point]"
6,COc1ccc(C2Nc3ccccc3C(=O)N2c2ccc(F)cc2)cc1Cn1nnc2ccccc21 (stereo unspecified),active: 6.57 µM
7,O=C(NCc1ccccc1Cl)c1cc(C(=O)C2CC2)c[nH]1,"inconclusive [inhibitor, single point]"
8,COc1cc(Cl)c(C)cc1NC(=O)c1cccc(OC)c1OC,"inconclusive [inhibitor, partial curve]"
9,CCN(CC)S(=O)(=O)c1ccc(C)c(NC(=O)CNc2cccc(S(=O)(=O)N3CCOCC3)c2)c1,"inconclusive [inhibitor, partial curve, poor fit]"
10,CCCCNC(=O)c1sc(=S)n2c1[nH]c(=O)c1ccccc12,"inconclusive [inhibitor, single point]"
11,Cc1ccc(N(C(=O)Nc2ccccc2)C2=NCC(C)S2)cc1 (stereo unspecified),inactive
12,CCN(CC)S(=O)(=O)c1cc(NC(=O)COC(=O)C2CCC2)ccc1C,"inconclusive [inhibitor, single point]"
13,COc1cc2c(c(OC)c1OC)-c1ccc(O)cc1[C@@H](NC(C)=O)CC2,"inconclusive [inhibitor, partial curve, poor fit]"
14,Cc1oc(-c2ccccc2)cc1C(=O)Nc1cccc2ccccc12,inactive
15,CCOc1ccc(CN(C)C(=O)CNC(=O)c2sc3ccccc3c2Cl)cc1,inactive
16,C#CCCOC(=O)N1C2=NC(C(=O)OC)=C(C(=O)OC)[C@@H]3N(Cc4ccccc4)c4ccccc4[C@]23C[C@H]1C(=O)OC,"inconclusive [inhibitor, partial curve, poor fit]"
17,c1cncc(CNCCc2ccc3c(c2)OCO3)c1,inactive
18,Cc1ccc(N(Cc2cc3ccc(C)cc3[nH]c2=O)S(=O)(=O)c2ccccc2)cc1,"inconclusive [inhibitor, partial curve, poor fit]"
19,O=C1NC[C@@H](Cc2ccc(O)cc2)N(CCc2cccc(F)c2)C1=O,inactive
20,CCOc1ccccc1N(C)C(=O)c1cc2c(=O)n(CC)c3ccccc3c2s1,"inconclusive [inhibitor, partial curve]"
21,Cc1ccc(S(=O)(=O)N(C)C)cc1NC(=O)c1cc(C(C)(C)C)nn1Cc1ccccc1,"inconclusive [inhibitor, full curve, poor fit]"
22,CC(C)N(CCNC(=O)C1CCCN(c2ncnc3c2nc2n3CCCCC2)C1)Cc1ccccc1 (stereo unspecified),"inconclusive [inhibitor, single point]"
